# Assay results reported in PubChem BioAssay AID463173 (ICCB-Longwood Screening Facility, Harvard Medical School, 2010).
# The whole screen tested about 52,000 compounds, of which about 4,300 (8.3%) were called active. Cut-off read from the data, not from the text of the source: active = survival mostly below about 52% (no sharp cut-off); inactive = mostly above about 56%. Some of the results follow.
# Tested on: DeltatarO mutant
# Experiment: S. aureus survival, RN4220 and DeltatarO strains – OD600, teichoic acid synthesis inhibitors, primary screen (AID 463173)
# Settings: S. aureus RN4220 wild type/DeltatarO growth, OD600, 18 h, stronger effect = lower value, screened at 18.75 µg/mL (by protocol)
row,SMILES,survival
1,COc1ccc(-c2cnc(N)n2CC2CCCO2)cc1 (stereo not given),inactive: 71%
2,COc1ccc(NC(=O)CN2CCCN(S(=O)(=O)c3ccc(Br)cc3)CC2)c(OC)c1,inactive: 65%
3,CCOC(=O)c1ccc(NC(=O)CCS(=O)(=O)c2ccc(C)cc2)cc1,inactive: 68%
4,Cc1cccc(-c2nc(CCNC(=O)c3ccco3)cs2)c1,active: -5%
5,COc1ccc(Cn2nnnc2C(c2ccccc2)N2CCC(C)CC2)cc1 (stereo not given),inactive: 68%
6,CC1CCCCN1C(=S)Nc1ccccc1 (stereo not given),inactive: 100%
7,CC(C)OCCCNC(=O)CCCn1c(=O)[nH]c2ccsc2c1=O,inactive: 80%
8,C=CCn1cnc2scc(-c3ccccc3)c2c1=O,inactive: 89%
9,CCOc1ccc(CNC(=O)c2cc(=O)[nH]c3ccc(S(=O)(=O)N4CCCCC4)cc23)cc1,inactive: 84%
10,Cc1cc(C)cc(Nc2cc(C(=O)NCCCN(Cc3ccccc3)C(C)C)c3ccccc3n2)c1,active: -4%
11,O=C(O)CSC1=NCCCN1,inactive: 92%
12,COc1ccc(CN(C(=O)c2cc3ccccc3oc2=O)C2CCS(=O)(=O)C2)cc1 (stereo not given),inactive: 55%
13,COc1ccc(C(=O)Nc2ccc(NC(=O)c3ccco3)cc2)cc1OC,inactive: 71%
14,COc1cc(NC(=O)CC(c2ccc(C)cc2)N2Cc3ccccc3C2=O)cc(OC)c1 (stereo not given),inactive: 67%
15,Cc1ccc(-c2noc(-c3ccc(NCc4ccco4)c([N+](=O)[O-])c3)n2)cc1,inactive: 98%
16,COc1ccc(S(=O)(=O)C(C)(C)C)cc1,inactive: 78%
17,COc1cc(C2CC(=O)c3c([nH]c(C(=O)OCC4CCCCC4)c3C)C2)cc(OC)c1OC (stereo not given),inactive: 82%
18,COc1ccc(-c2nc(C)c(CCNC(=O)C(=O)Nc3ccccc3C#N)s2)cc1OC,inactive: 88%
19,COc1ccc(-n2nnc(-c3nc(-c4cccs4)no3)c2N)cc1OC,inactive: 74%
20,COC(=O)c1c(NC(=O)c2nc(SCc3cccc(C)c3)ncc2Cl)sc2c1CCCC2,inactive: 113%

row,SMILES,survival
1,CC(=O)N1CCCC1c1nc2ccccc2n1Cc1cccc(Cl)c1 (stereo not given),inactive: 85%
2,CCOc1ccccc1CNC(=O)Cn1ncn2nc(-c3cccs3)cc2c1=O,inactive: 67%
3,Cc1ccc(C)c(CNC(=O)C2CCN(c3nc4ccccc4nc3C(F)(F)F)CC2)c1,inactive: 98%
4,COc1ccc(Nc2nnc(-c3cc4c(ccc5ccccc54)oc3=O)s2)cc1,inactive: 82%
5,COc1ccccc1CCNC(=O)C(=O)NCC(c1cccs1)S(=O)(=O)c1ccc(C)cc1 (stereo not given),inactive: 68%
6,COc1ccccc1C(=O)Nc1nc2nc(-c3ccccc3)cc(=O)n2[nH]1,inactive: 74%
7,CCc1nn2c(=O)cc(COC(=O)c3ccc(NC(=O)c4cccs4)cc3)nc2s1,inactive: 94%
8,Cc1ccccc1NS(=O)(=O)c1ccc2[nH]cc(C(=O)NC(C)c3ccccc3)c(=O)c2c1 (stereo not given),inactive: 90%
9,CCN(CC)CCCNC(=O)c1ccc2nc(N3CCCCC3)sc2c1,inactive: 102%
10,CCNC(=O)c1ccc2nc(CCc3ccccc3)oc2c1,inactive: 102%
11,COc1ccc(CCNC(=O)c2cc(C)nc3c2c(C)nn3-c2ccc(C)cc2)cc1OC,inactive: 102%
12,O=C1c2ccccc2C(=O)N1COc1cccc2cccnc12,inactive: 97%
13,Cc1n[nH]c(C)c1S(=O)(=O)N1CCCC(C(=O)Nc2ccc(Br)cc2)C1 (stereo not given),inactive: 130%
14,Cc1cc(Nc2ccccc2C)nc(-n2nc(C)cc2C)n1,inactive: 83%
15,O=C1C(=O)N(C2CCN(C(=O)c3ccc(Cl)cc3)CC2)CCN1Cc1ccc(F)cc1,inactive: 78%
16,CCN1CCN(CCC(=O)Nc2ccc3c(c2)CCC3)CC1,inactive: 95%
17,CCCOc1ccc(CN(C(=O)c2cc(=O)c3ccc(C)cc3o2)C2CCS(=O)(=O)C2)cc1 (stereo not given),active: 36%
18,COc1ccc(N2CCN(S(=O)(=O)CCNC(=O)C3CC(=O)N(c4ccccc4)C3)CC2)cc1 (stereo not given),inactive: 83%
19,COc1cccc(C(=O)CC2(O)C(=O)Nc3ccc(Cl)cc32)c1 (stereo not given),inactive: 176%
20,COc1cc(C)ccc1OCCSc1nc(-c2cccc(C)c2)nc2cc(=O)[nH]n12,inactive: 69%

row,SMILES,survival
1,CCOC(=O)c1ccc(C(=O)OCC)nc1,inactive: 83%
2,Cc1nc(CC(=O)Nc2cc(Cl)ccc2C)cs1,active: 45%
3,O=C(CN1CCSc2ccccc21)NCc1ccccc1F,inactive: 85%
4,CCOc1ccccc1C(=O)N(Cc1cc(OC)c(OC)c(OC)c1)C1CCS(=O)(=O)C1 (stereo not given),inactive: 48%
5,CCOc1ccccc1CN1CCc2nc(N3CCN(c4ccccc4F)CC3)ncc2C1,active: -4%
6,COc1ccc2nc(N(Cc3cccnc3)C(=O)C3COc4ccccc4O3)sc2c1 (stereo not given),inactive: 78%
7,Cc1cc(C)c(Cn2c3ccccc3c3cnn(CC(=O)NCc4ccccn4)c(=O)c32)c(C)c1,inactive: 95%
8,O=C(CCS(=O)(=O)c1ccc(Br)cc1)Nc1ccc(Cl)c(C(F)(F)F)c1,inactive: 90%
9,CCOC(=O)c1cccc(NC(=O)c2cn(-c3cccc(OC)c3)c(=O)c3ccccc23)c1,inactive: 60%
10,CCc1nc(SCC(=O)O)c(C#N)cc1C,inactive: 47%
11,CC(=NC1CC1)C1=C(O)c2ccccc2C1=O,inactive: 92%
12,COc1cccc(NC(=O)Cn2c(=O)n(CC(=O)NCc3ccc(C)cc3)c(=O)c3sccc32)c1,inactive: 77%
13,Nc1nnc(SCC(=O)Nc2ccccc2)s1,inactive: 73%
14,Cc1ccc2nc(-c3c[nH]c4ccccc34)c(Nc3ccccc3C)n2c1,inactive: 96%
15,Cc1ccc(C(c2ccccc2)c2c(C)[nH]c3ccccc23)s1 (stereo not given),active: 26%
16,COCCNC(=O)c1nc2c(nnn2Cc2cc(C)ccc2C)c(=O)[nH]1,inactive: 90%
17,CCN1CCN(C(=O)Cn2ncc3c4ccccc4n(Cc4ccccc4)c3c2=O)CC1,inactive: 81%
18,Cc1ccc(-c2cc(NC(=O)COc3ccc(Cl)c(C)c3)on2)cc1,inactive: 86%
19,Cc1ccc(/C=C/C(=O)Nc2ccc(S(N)(=O)=O)cc2)o1,inactive: 61%
20,Cc1ccc(NC(=O)N(Cc2cc3cc(C)cc(C)c3[nH]c2=O)CC2COCCO2)cc1 (stereo not given),inactive: 99%
